Among the data in US11365205B2 (Aurigene Discovery Technologies Limited, priority 2018, dated 2022) are IC50 values, retold here.

What is called pIC50 is the negative decadic logarithm of the IC50, by convention in mol/L.

pIC50: −log10 of the molar value.

UniProt O14744, sequence (O14744 whole entry): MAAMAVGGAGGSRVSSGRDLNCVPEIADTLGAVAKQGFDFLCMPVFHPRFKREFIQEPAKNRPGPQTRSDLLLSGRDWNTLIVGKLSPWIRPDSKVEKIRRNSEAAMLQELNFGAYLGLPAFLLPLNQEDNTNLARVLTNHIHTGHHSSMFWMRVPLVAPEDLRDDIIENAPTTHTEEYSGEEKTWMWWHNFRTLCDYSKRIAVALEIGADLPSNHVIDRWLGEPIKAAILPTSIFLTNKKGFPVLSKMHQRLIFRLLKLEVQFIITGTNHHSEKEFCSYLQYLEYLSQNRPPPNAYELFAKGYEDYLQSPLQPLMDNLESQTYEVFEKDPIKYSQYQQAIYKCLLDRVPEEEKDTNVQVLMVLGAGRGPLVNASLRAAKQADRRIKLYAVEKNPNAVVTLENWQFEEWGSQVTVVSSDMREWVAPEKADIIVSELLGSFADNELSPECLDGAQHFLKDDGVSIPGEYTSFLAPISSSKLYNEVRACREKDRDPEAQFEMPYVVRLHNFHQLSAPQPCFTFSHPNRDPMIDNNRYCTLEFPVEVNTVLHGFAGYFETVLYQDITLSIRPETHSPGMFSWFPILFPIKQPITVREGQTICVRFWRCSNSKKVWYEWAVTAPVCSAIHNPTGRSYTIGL
UniProt O14744, sequence (Q9BQA1 whole entry partner): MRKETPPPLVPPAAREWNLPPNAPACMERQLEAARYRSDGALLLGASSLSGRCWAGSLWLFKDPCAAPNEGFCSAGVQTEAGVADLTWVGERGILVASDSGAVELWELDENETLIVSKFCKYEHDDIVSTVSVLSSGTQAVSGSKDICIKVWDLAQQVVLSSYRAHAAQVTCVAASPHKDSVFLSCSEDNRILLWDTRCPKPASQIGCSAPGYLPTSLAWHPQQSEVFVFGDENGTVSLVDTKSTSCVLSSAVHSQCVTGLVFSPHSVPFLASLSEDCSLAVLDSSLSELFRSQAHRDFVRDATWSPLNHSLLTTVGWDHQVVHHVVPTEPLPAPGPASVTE

For the experiment, the target named is PRMT5/MEP50 Complex (Homo sapiens (Human), UniProt O14744). As to the kind of experiment: PRMT5 inhibition based on TR-FRET assay. It counts as biochemical. The following applies: 32 nM PRMT5:MEP50, 50 nM Histone-H4 peptide, 1 μM SAM. The text has this: PRMT5 Inhibition Based on TR-FRET Assay:
Protein arginine methyltransferase 5 (PRMT5) is a type II arginine methyltransferase that catalyze mono- and symmetric demethylation on arginine residues of histone or non-histone proteins in presence of S-adenosylmethionine (AdoMet or SAM) a cofactor responsible for donating the methyl group. PRMT5 is reported to be overexpressed in several human cancers. To identify compounds that inhibit the PRMT5 and decrease its activity, a TR-FRET based assay has been established. Time-resolved fluorescence resonance energy transfer (TR-FRET) HTS assays are homogeneous proximity assays where the interaction of two dye-labeled binding partners is detected by the energy transfer between a donor and an acceptor dye and the subsequent light emission by the acceptor dye. PRMT5 catalyzes Histone H4 peptide which is biotin tagged to the Lysine amino acid at carboxyl end, in presence of S-adenosyl-1-methionine (SAM) to methylate the peptide. The antibody specific to mono methylated H4 peptide (H4R3) with Ig conjugate binds to the methylated peptide, indirectly binding to the Europium lanthanide. SureLight Allophycocyanin-Streptavidin binds to the biotin tag of the peptide, therefore accepting the energy transferred from the Europium lanthanide. This energy transfer between Europium to SureLight Allophycocyanin is a direct measure of the activity/inhibition of the PRMT5 enzyme.
Assay buffer: 20 mM BICINE (pH 7.6), 25 mM NaCl, 2 mM DTT, 0.01% Tween-20 and 0.01% BSA.
The compound dilutions were prepared as 7.5% DMSO stock solutions in assay buffer. To 2 μL (7.5×) of test compound, 5 μL of PRMT5 enzyme prepared in assay buffer (Final concentration of 32 nM in 15 μL reaction volume) was added and allowed for 30 minutes pre-incubation time in a white polystyrene 384-well plate at room temperature. […] The plates were then read on Victor-3 with Excitation at 340 nm and Emissions collected at 615 and 665 nm in TR-FRET protocol. […]
On the technique in general: Time-resolved FRET reads energy transfer from a long-lived donor to a nearby acceptor.
As for `Cc1ccccc1CN1CCN(CC(O)CN2CCc3ccccc3C2)C1=O` (single isomer, unassigned) [Example 16a, 1-(3-(3,4-Dihydroisoquinolin-2(1H)-yl)-2-hydroxypropyl)-3-(2-methylbenzyl)imidazolidin-2-one], the pIC50 was 6.72.
Compound `Cc1ccccc1CN1CCN(CC(O)CN2CCc3ccccc3C2)C1=O` (single isomer, unassigned) [Example 16b, 1-(3-(3,4-Dihydroisoquinolin-2(1H)-yl)-2-hydroxypropyl)-3-(2-methylbenzyl)imidazolidin-2-one] showed a pIC50 of under 5.30.
Compound `Cc1ccc(CN2C(=O)CN(CC(O)CN3CCc4ccccc4C3)C2=O)cc1` (stereo not drawn) [Example 17, 1-(3-(3,4-Dihydroisoquinolin-2(1H)-yl)-2-hydroxypropyl)-3-(4-methylbenzyl)imidazolidine-2,4-dione] showed a negative logarithm of the IC50 (pIC50) of 7.52.
